Some results are limits rather than exact numbers.

For assay [1], the target named is 72 kDa type IV collagenase (Homo sapiens, UniProt P08253).
Assay [2] has as its target Macrophage metalloelastase (Homo sapiens, UniProt P39900).

Chain of 72 kDa type IV collagenase (P08253 whole entry): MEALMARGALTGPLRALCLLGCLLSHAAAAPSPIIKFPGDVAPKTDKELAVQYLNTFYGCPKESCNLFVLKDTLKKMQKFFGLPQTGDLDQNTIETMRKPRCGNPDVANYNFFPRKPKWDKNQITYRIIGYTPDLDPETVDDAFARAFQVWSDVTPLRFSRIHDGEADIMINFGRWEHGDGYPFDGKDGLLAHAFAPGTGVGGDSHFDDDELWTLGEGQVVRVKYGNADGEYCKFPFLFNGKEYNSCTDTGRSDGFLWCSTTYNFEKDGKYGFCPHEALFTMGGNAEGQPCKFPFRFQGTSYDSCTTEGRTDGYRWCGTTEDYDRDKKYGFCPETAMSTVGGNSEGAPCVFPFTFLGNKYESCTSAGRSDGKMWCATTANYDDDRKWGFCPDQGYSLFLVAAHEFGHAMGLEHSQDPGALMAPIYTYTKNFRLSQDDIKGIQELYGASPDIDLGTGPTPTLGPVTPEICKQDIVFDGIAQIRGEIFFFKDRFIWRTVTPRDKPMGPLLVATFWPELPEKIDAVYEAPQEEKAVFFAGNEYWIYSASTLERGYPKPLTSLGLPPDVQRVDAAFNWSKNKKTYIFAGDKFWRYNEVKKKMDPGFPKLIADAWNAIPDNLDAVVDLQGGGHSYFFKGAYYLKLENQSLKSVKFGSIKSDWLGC
Chain of Macrophage metalloelastase (P39900 whole entry): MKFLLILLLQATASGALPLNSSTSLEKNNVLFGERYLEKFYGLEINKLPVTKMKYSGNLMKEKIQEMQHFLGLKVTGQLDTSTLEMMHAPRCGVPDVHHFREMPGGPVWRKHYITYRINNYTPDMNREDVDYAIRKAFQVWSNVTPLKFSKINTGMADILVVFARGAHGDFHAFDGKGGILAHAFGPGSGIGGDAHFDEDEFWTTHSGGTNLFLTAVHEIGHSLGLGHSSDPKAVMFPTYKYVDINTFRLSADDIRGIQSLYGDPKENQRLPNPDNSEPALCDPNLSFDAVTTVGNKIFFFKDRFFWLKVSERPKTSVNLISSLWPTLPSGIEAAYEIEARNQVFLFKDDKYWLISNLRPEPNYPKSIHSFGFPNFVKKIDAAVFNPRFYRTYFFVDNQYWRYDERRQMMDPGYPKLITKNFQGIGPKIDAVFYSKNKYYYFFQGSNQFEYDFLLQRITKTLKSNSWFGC

In turn, `COc1ccc(CNC(=O)CC[C@H](NS(=O)(=O)c2ccc(-c3ccccc3)cc2)C(=O)O)cc1` displayed an IC50 in assay [1] of 193 nM.

In turn, `CC(C)NC(=O)CC[C@H](NS(=O)(=O)c1ccc(-c2ccccc2)cc1)C(=O)O` returned an IC50 in assay [1] of 208 nM.

On to `CC(C)(C)NC(=O)CC[C@H](NS(=O)(=O)c1ccc(-c2ccccc2)cc1)C(=O)O`, for which it took 186 nM to reach half-maximal inhibition in assay [1] (IC50). This IC50 and that of the compound before are within 1.5-fold of each other.

In assay [1], `O=C(CC[C@H](NS(=O)(=O)c1ccc(-c2ccccc2)cc1)C(=O)O)NCCc1ccccc1` displayed an IC50 of 123 nM.

In assay [1], `CCCCCNC(=O)CC[C@H](NS(=O)(=O)c1ccc(C2CCCCC2)cc1)C(=O)O` displayed an IC50 of more than 500 nM.

In turn, `CNC(=O)C(NC(=O)C(CCc1ccccc1)CP(=O)(O)Cc1ccc(Cc2ccccc2)cc1)C(C)(C)C` (stereo not drawn) had an IC50 in assay [1] of 10 nM.

`O=C(CC[C@H](NS(=O)(=O)c1ccc(-c2ccc(Br)cc2)cc1)C(=O)O)NC1CCCCC1`: in assay [1], half-maximal inhibition (IC50) was put at 672 nM.

In turn, `CNC(=O)CC[C@H](NS(=O)(=O)c1ccc(-c2ccccc2)cc1)C(=O)O` displayed an IC50 in assay [1] of 843 nM.

In the case of `CNC(=O)C(Cc1ccc(OC)cc1)NC(=O)C(CC(=O)NO)CC(C)C` (stereo not drawn), in assay [1], the IC50 worked out at 6 nM.

For the compound `CCNC(=O)CC[C@H](NS(=O)(=O)c1ccc(-c2ccccc2)cc1)C(=O)O`, in assay [1], it took 203 nM to reach half-maximal inhibition (IC50).

In the case of `O=C(CC[C@H](NS(=O)(=O)c1ccc(-c2ccccc2)cc1)C(=O)O)NCc1ccc([N+](=O)[O-])cc1`, inhibition in assay [1] was half-maximal at 291 nM (IC50).

`O=C(CC[C@H](NS(=O)(=O)c1ccc(-c2ccccc2)cc1)C(=O)O)NCc1ccc(F)cc1`: in assay [1], the IC50 turned out to be 76 nM.

`CCCCCCNC(=O)CC[C@H](NS(=O)(=O)c1ccc(-c2ccccc2)cc1)C(=O)O` showed an IC50 in assay [1] of 103 nM.

In the case of `O=C(CC[C@H](NS(=O)(=O)c1ccc(-c2ccccc2)cc1)C(=O)O)Nc1ccccc1`, the IC50 in assay [1] worked out at 79 nM.

For `CCCNC(=O)CC[C@H](NS(=O)(=O)c1ccc(-c2ccccc2)cc1)C(=O)O`, the IC50 in assay [2] turned out to be 178 nM; in assay [1] it was 177 nM.

In the case of `CNC(=O)C(NC(=O)C(CCCc1ccc(-c2ccccc2)c(C(C)(C)C)c1)CC(=O)NO)C(C)(C)C` (stereo not drawn), the midpoint of inhibition in assay [1], the IC50, lay at 86 nM.

The compound `O=C(CC[C@H](NS(=O)(=O)c1ccc(-c2ccccc2)cc1)C(=O)O)NC1CCCCC1` came in with an IC50 in assay [1] of 30 nM.

Compound `O=C(NO)[C@@]1(NS(=O)(=O)c2ccc(Oc3ccc(F)cc3)cc2)C[C@H]2CC[C@@H](C1)O2` yielded an IC50 in assay [1] of 0.3 nM.

On to `O=C(CC[C@H](NS(=O)(=O)c1ccc(-c2ccccc2)cc1)C(=O)O)NCc1cc(C(F)(F)F)cc(C(F)(F)F)c1`, for which 51 nM corresponded to half-maximal inhibition in assay [1] (IC50).

The compound `O=C(CC[C@H](NS(=O)(=O)c1ccc(-c2ccc(Br)cc2)cc1)C(=O)O)NCc1ccccc1` showed an IC50 in assay [1] of 419 nM.

With `O=C(CC[C@H](NS(=O)(=O)c1ccc(-c2ccccc2)cc1)C(=O)O)NCc1ccccc1Cl`, in assay [1], the IC50 came out at 31 nM. Compared with the last compound, the IC50 is about 14-fold lower.

Turning to `O=C(CC[C@H](NS(=O)(=O)c1ccc(C2CCCCC2)cc1)C(=O)O)NCc1ccccc1`, the IC50 in assay [1] is more than 500 nM.

In turn, `CCCCNC(=O)CC[C@H](NS(=O)(=O)c1ccc(-c2ccccc2)cc1)C(=O)O` yielded an IC50 in assay [1] of 44.6 nM.

Consider `NC(=O)CC[C@H](NS(=O)(=O)c1ccc(-c2ccccc2)cc1)C(=O)O`, for which inhibition in assay [1] was half-maximal at 885 nM (IC50).

Regarding `CC(C)CNC(=O)CC[C@H](NS(=O)(=O)c1ccc(-c2ccccc2)cc1)C(=O)O`, 98 nM corresponded to half-maximal inhibition in assay [1] (IC50).

In turn, `COC(NC(=O)C(NC(=O)C(CCCc1ccc(-c2ccccc2)c(C)c1)CC(=O)O)C(C)(C)C)c1ccccc1` (stereo not drawn) showed an IC50 in assay [1] of 34200 nM. This IC50 is about 350-fold higher than that of the compound before.

In assay [1], `CCCCCNC(=O)CC[C@H](NS(=O)(=O)c1ccc(-c2ccccc2)cc1)C(=O)O` displayed an IC50 of 41 nM.

As to `O=C(CC[C@H](NS(=O)(=O)c1ccc(-c2ccccc2)cc1)C(=O)O)NCc1ccc(Cl)c(Cl)c1`, the concentration for half-maximal inhibition (IC50) in assay [1] came to 806 nM.

On to `CCCCCNC(=O)CC[C@H](NS(=O)(=O)c1ccc(-c2ccc(Br)cc2)cc1)C(=O)O`, for which, in assay [1], 472 nM corresponded to half-maximal inhibition (IC50).

`O=C(CC[C@H](NS(=O)(=O)c1ccc(-c2ccccc2)cc1)C(=O)O)NCc1ccc(Cl)cc1`: in assay [1], inhibition was half-maximal at 263 nM (IC50).

Turning to `O=C(CC[C@H](NS(=O)(=O)c1ccc(-c2ccccc2)cc1)C(=O)O)NCc1ccccc1`, in assay [1], the IC50 worked out at 24 nM. Against the preceding compound, the IC50 is about 11-fold lower.

For the compound `CNC(=O)C(NC(=O)C(CCc1ccc(Cl)cc1)CP(=O)(O)Cc1ccc(Cc2ccccc2)cc1)C(C)(C)C` (stereo not drawn), in assay [1], half-maximal inhibition (IC50) was put at 2.6 nM.

What is called IC50 is the concentration needed to halve the response being measured.

The record behind these values is ChEMBL document CHEMBL3826960, “Robust design of some selective matrix metalloproteinase-2 inhibitors over matrix metalloproteinase-9 through in silico/fragment-based lead identification and de novo lead modification: Syntheses and biological assays” (Bioorg Med Chem, 2016).
